Reference: PubChem BioAssay AID1508623 (National Center for Advancing Translational Sciences (NCATS), 2021)
Values joined by “and” are separate entries in the source; they are usually repeats but may differ in a detail not shown here. Equal entries are not always repeated. Hit rate of the full screen: of about 48,000 compounds, about 450 (0.94%) were called active. Inconclusive results, whose numbers are uncertain, are shown with a selection of clear calls. The call rests on the fitted dose curve; in most records, active means well fitted inhibition curve with a large enough effect; inconclusive means small, poorly fitted or top-dose-only effect; inactive means no such curve, though single readings can be large or run the other way. Potencies of inconclusive entries are doubtful fits and often do not repeat.

experiment: Primary qHTS for Identification of Small Molecule Inhibitors of Huntingtin Promoter Activity; conditions: HEK293 HTT promoter firefly luciferase reporter (activity 0% = vehicle and -100% = no light), 24 h; activity change, negative = inhibition: at 57.5 µM (top of the series); further: nearly all actives have a fitted effect of over 50% in size
How it was run: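 Quantitative HTS used concentration series of up to 57.5 uM final on HEK293 luciferase reporter cells, 24 h at 37 degrees C. Readout was Dual-Glo firefly luminescence.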
Potency means the concentration at half of the fitted maximal effect; tags describe the fitted curve by direction and shape.

| SMILES | Potency | activity change, negative = inhibition |
| --- | --- | --- |
| COc1ccccc1-c1nc2c(c(SCC(=O)Nc3ccc(C)c(C)c3)n1)Cc1c(CO)cnc(C)c1O2 | inconclusive: 20 µM [inhibitor, single point] | – |
| COc1ccc(C2=C(C)C(=NCCCN3CCN(c4cc(C)ccc4C)CC3)NS2(=O)=O)cc1 | inconclusive: 28.2 µM [inhibitor, partial curve, poor fit] | – |
| CCCCN(CC)CCCNC(=O)c1nn(C)c2c1CS(=O)(=O)c1ccccc1-2 | – | inactive: -0.275% |
| CC1=C(C(=O)OC(C)C)C(c2cccc([N+](=O)[O-])c2)C(C(=O)OC2CN(C(c3ccccc3)c3ccccc3)C2)=C(N)N1 (centres undefined) | inconclusive: 35.5 µM [inhibitor, single point] | – |
| CCCCCOc1c(Cl)cc(C(=O)N(Cc2ccc(C)o2)C2CCS(=O)(=O)C2)cc1Cl (centres undefined) | inconclusive: 35.5 µM [inhibitor, single point] | – |
| CCOC(=O)c1ccc(N2C(=O)c3n[nH]c(-c4ccco4)c3C2c2ccc(O)cc2)cc1 (centres undefined) | inconclusive: 22.4 µM [inhibitor, partial curve] | – |
| Cc1cc(C2CCCCC2)n(O)c(=O)c1 | inconclusive: 31.6 µM [inhibitor, single point] and inconclusive: 15.3 µM [inhibitor, full curve] | – |
| CCN[C@@H]1C[C@H](N)[C@@H](OC2OC(CN)=CCC2N)[C@H](O)[C@H]1O[C@H]1OC[C@](C)(O)[C@H](NC)[C@H]1O (some centres undefined) | – | inactive: 4.19% [at 0.739 µM] |
| COc1ccc2cc(C=O)ccc2c1 | – | inactive: 20.3% |
| O=C(Nc1cccc(OCc2cc(=O)n3c4c(sc3n2)CCCC4)c1)c1ccc(F)cc1 | – | inactive: -9.32% |
| O=C(c1cccc(Cl)c1)N1CCN(CCc2ccncc2)CC1 | – | inactive: -11.7% |
| COc1cc(C(=O)NS(=O)(=O)c2ccccc2C)ccc1Cc1cn(C)c2ccc(NC(=O)OC3CCCC3)cc12 | inconclusive: 38.5 µM [inhibitor, single point] | – |
| COc1ccc(Cl)cc1-n1c(/C=C/c2cccc3ccccc23)nc2ccccc2c1=O | inconclusive: 39.8 µM [inhibitor, single point] | – |
| CCCCN(CCCC)S(=O)(=O)c1ccc2oc(C(=O)NCc3ccc(C)cc3)c(C)c2c1 | inconclusive: 22.4 µM [inhibitor, partial curve, poor fit] | – |
| O=C(CCCN1CCN(c2ccc(F)cc2)CC1)NC1c2ccccc2CSc2ccccc21 (centres undefined) | inconclusive: 5.44 µM [inhibitor, full curve] | – |
| COc1ccc(-c2cc(C(F)(F)F)nc(SCCC(=O)Nc3cc(C)ccc3O)n2)cc1 | inconclusive: 39.8 µM [inhibitor, single point] | – |
| CCn1c(=O)c(C(=O)Nc2ccc(C(C)=O)cc2)nc2ccccc21 | – | inactive: 33.7% |
| Cc1ccc(CS(=O)(=O)c2ncc(Cl)c(C(=O)Nc3nc4ccc(C)cc4s3)n2)cc1 | inconclusive: 39.8 µM [inhibitor, single point] | – |
| Cc1n[nH]c(C)c1S(=O)(=O)N(CC(=O)Nc1ccc(C(F)(F)F)cc1)c1ccc(C(C)C)cc1 | inconclusive: 28.2 µM [inhibitor, single point] | – |
| CCCCN(CCCC)CCNC(=O)Cn1nc(CC)n2c(cc3sc(C)cc32)c1=O | inconclusive: 17.8 µM [inhibitor, single point] | – |

| SMILES | Potency | activity change, negative = inhibition |
| --- | --- | --- |
| O=S1(=O)c2ccccc2N(Cc2cccc(C(F)(F)F)c2)c2ccccc21 | inconclusive: 25.1 µM [inhibitor, partial curve] | – |
| CCc1cncnc1N1CCN(Cc2nc3ccc(C(F)(F)F)cc3[nH]2)CC1 | inconclusive: 19.3 µM [inhibitor, partial curve, poor fit] | – |
| COc1ccc(C(=O)N2c3ccccc3C(C)(c3ccc(Cl)cc3)CC2(C)C)cc1 (centres undefined) | inconclusive: 39.8 µM [inhibitor, single point] | – |
| Cc1ccc(-c2onc(C)c2C)cc1S(=O)(=O)N1c2ccccc2CC1C (centres undefined) | inconclusive: 15.8 µM [inhibitor, partial curve, poor fit] | – |
| O=C(NCCn1cc(SCc2ccc(Cl)cc2)c2ccccc21)c1cccs1 | inconclusive: 31.6 µM [inhibitor, single point] | – |
| COc1cccc(-c2nc(SCC(=O)Nc3ccc4c(c3)OCCO4)c(-c3ccccc3)[nH]2)c1 | inconclusive: 28.2 µM [inhibitor, partial curve, poor fit] | – |
| COCCCNC(=O)c1ccc(Cn2c(=O)c3ccccc3n(Cc3ccccc3C)c2=O)cc1 | inconclusive: 25.1 µM [inhibitor, partial curve, poor fit] | – |
| COc1ccc(NC(=O)c2cnn(-c3ccc(F)cc3F)c2C2CCN(C(=O)OC(C)(C)C)CC2)cc1Cl | inconclusive: 39.8 µM [inhibitor, single point] | – |
| COc1ccc(CCNC(=O)c2ccc3nc(Cc4ccccc4)oc3c2)cc1OC | inconclusive: 17.8 µM [inhibitor, partial curve, poor fit] | – |
| Nc1nonc1-c1nc2ccccc2n1Cc1c(Cl)cccc1Cl | inconclusive: 22.4 µM [inhibitor, single point] | – |
| O=C(C1CCCN(S(=O)(=O)c2cccc3nonc23)C1)N1CCN(c2ccccc2Cl)CC1 (centres undefined) | inconclusive: 28.2 µM [inhibitor, single point] | – |
| NCC(=O)Nc1ccc(-n2nc(C(F)(F)F)cc2-c2ccc3c(ccc4ccccc43)c2)cc1 | – | inactive: -13.7% |
| COc1ccc(CCn2c(=O)[nH]c3cc(C(=O)N4CCN(c5ccccc5)CC4)ccc3c2=O)cc1OC | inconclusive: 8.91 µM [inhibitor, full curve, poor fit] | – |
| CCOc1ccccc1NC(=O)n1ncc2cc(Cl)ccc21 | – | inactive: 25.1% |
| Fc1ccc(-c2cn3cc(Cc4ccccc4Cl)sc3n2)cc1 | inconclusive: 39.8 µM [inhibitor, single point] | – |
| CC1=C(c2ccc(C)cc2)S(=O)(=O)N(Cc2ccc(C(=O)Nc3ccccc3C)cc2)C1=O | inconclusive: 12.6 µM [inhibitor, partial curve, poor fit] | – |
| COc1ccc(NC(=O)Cn2c(=O)oc3cc(S(=O)(=O)N4CCCCC4C)ccc32)cc1 (centres undefined) | inconclusive: 25.1 µM [inhibitor, partial curve] | – |
| CC(=O)Nc1ccc(NS(=O)(=O)c2cc(Br)cc3c2N(C(=O)C2CC2)CC3)cc1 | – | inactive: -13.5% |
| COc1cc(OC)c(NC(=O)c2cc(C(C)=O)n3ccccc23)cc1Cl | inconclusive: 39.8 µM [inhibitor, single point] | – |
| Cc1nn(Cc2noc(C(=O)NCc3cccc(F)c3)n2)c(C)c1Br | – | inactive: -9.54% |

| SMILES | Potency | activity change, negative = inhibition |
| --- | --- | --- |
| CN(C)CCN(Cc1ccccc1)S(=O)(=O)c1ccc(-c2cc(C(F)(F)F)on2)s1 | inconclusive: 22.4 µM [inhibitor, single point] | – |
| Cc1ccc(C)c(NC(=O)CN2C(=O)C3(SCC(=O)N3c3ccc(C)c(C)c3)c3ccccc32)c1 (centres undefined) | inconclusive: 14.1 µM [inhibitor, partial curve, poor fit] | – |
| CCCCOc1ccc(C(=O)Nc2ccc(S(=O)(=O)Nc3nc(C)cc(C)n3)cc2)cc1 | inconclusive: 28.2 µM [inhibitor, single point] | – |
| CC1CCc2nc3ncn(Cc4ccc(Cl)cc4)c(=O)c3cc2C1 (centres undefined) | – | inactive: 46.9% |
| COc1ccc(Br)cc1Cn1nnc(C(=O)Nc2ccc(C)cc2C)c1N | inconclusive: 31.6 µM [inhibitor, partial curve] | – |
| CCCCOc1ccc(C(=O)N2CC(=O)Nc3ccc(Br)cc3C2c2ccc(F)cc2)cc1 (centres undefined) | inconclusive: 39.8 µM [inhibitor, single point] | – |
| Cn1c(=O)n(-c2ccc3c(c2)OCO3)c2nc(-c3ccc(Cl)cc3)nc(C(N)=O)c21 | – | inactive: -3.59% |
| O=C(CCCl)NCc1ccccc1 | – | inactive: 5.72% |
| CCOC(=O)c1scc(-c2ccccc2)c1S(=O)(=O)Nc1ccc(N(C)C)cc1 | inconclusive: 39.8 µM [inhibitor, single point] | – |
| O=C(Nc1nonc1-c1ccc(Cl)cc1)c1ccccc1F | inconclusive: 35.5 µM [inhibitor, partial curve, poor fit] | – |
| COc1ccc(N2CC(NC(=O)/C=C\c3ccc4c(c3)OCO4)CC2=O)cc1 (centres undefined) | inconclusive: 31.6 µM [inhibitor, single point] | – |
| O=c1c(O)c(-c2ccc(O)c(O)c2)oc2cc(O)ccc12 | inconclusive: 27.3 µM [inhibitor, partial curve, poor fit] | – |
| COc1cccc(-c2nc(CS(=O)(=O)CC(=O)NCCc3ccc(OC)cc3OC)c(C)o2)c1 | – | inactive: -27.9% |
| CCOC(=O)c1ccc(NC(=O)c2cnn(-c3ccc(C)cc3C)c2C2CCN(C(=O)OC(C)(C)C)CC2)cc1 | inconclusive: 39.8 µM [inhibitor, single point] | – |
| COc1ccc(Cl)cc1NC(=O)CSC1=Nc2ccccc2C2=NC(CCC(=O)NCc3ccc(F)cc3)C(=O)N12 (centres undefined) | – | inactive: -4.42% |
| COc1ccc(C)cc1NC(=O)c1c2c(nc3ccccc13)C(=O)N(C1CCCCC1)C2 | inconclusive: 39.8 µM [inhibitor, single point] | – |
| Cc1ccc(Cl)cc1NC(=O)C(Cc1ccccc1)NS(=O)(=O)c1cccc2nsnc12 (centres undefined) | inconclusive: 39.8 µM [inhibitor, single point] | – |
| CCOc1ccc(NC(=O)CN2C(=O)C(c3ccc(Cl)cc3)=NC2(C)C)cc1 | inconclusive: 15.8 µM [inhibitor, partial curve, poor fit] | – |
| CC(C)c1ccc(C2=CC(c3cccc(Cl)c3)n3c(nc4ccccc43)N2)cc1 (centres undefined) | inconclusive: 35.5 µM [inhibitor, single point] | – |
